# Experimental data published in PubChem BioAssay AID485281 (National Center for Advancing Translational Sciences (NCATS), 2010).
# The whole screen tested about 350,000 compounds, of which about 260 (0.074%) were called active. The shares of active, inactive and inconclusive entries below differ from those in the screen. The call rests on the fitted dose curve; in most records, active means well fitted inhibition curve with a large enough effect; inconclusive means small, poorly fitted or top-dose-only effect; inactive means no such curve, though single readings can be large or run the other way. Where the call is inconclusive, the potency comes from a doubtful curve fit.
# Target: Ferritin light chain (Equus caballus) (UniProt P02791)
# Test: qHTS Assay for Identification of Novel General Anesthetics; further: nearly all actives have a fitted effect of over 20% in size
# Conditions: apoferritin/1-aminoanthracene competitive binding, fluorescence; activity change, negative = displacement: at 77.5 µM (top of the series)
# In short: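 In PBS, apoferritin at 10 uM is loaded with 1-AMA from a 50% saturated solution. After 10 min of compound exposure at ambient temperature, reduced 535 nm fluorescence indicates probe displacement.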
# On the % scale 0 is the no-effect control and ±100 the full control effect; potency means the concentration at half of the fitted maximal effect; tags describe the fitted curve by direction and shape.
# UniProt P02791, sequence (P02791 whole entry, looked up): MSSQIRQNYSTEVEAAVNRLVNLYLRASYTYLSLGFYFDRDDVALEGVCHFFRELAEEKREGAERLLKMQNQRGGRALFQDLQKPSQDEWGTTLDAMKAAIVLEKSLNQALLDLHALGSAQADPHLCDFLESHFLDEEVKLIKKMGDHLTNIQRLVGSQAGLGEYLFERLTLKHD
Structure (SMILES),"activity change, negative = displacement",Potency
COc1ccccc1NC(=O)C1CCN(S(=O)(=O)c2ccc3c(c2)CC(C)N3C(C)=O)CC1 (configuration not stated),inactive: -11.1%,
O=C(CN1C(=O)COc2ccc(S(=O)(=O)N3CCCC3)cc21)N1CCN(c2ccc(Cl)cc2)CC1,inactive: 13.4%,
O=C(CNc1cccc([N+](=O)[O-])c1)N/N=C/c1ccc([N+](=O)[O-])o1,inactive: -6.3%,
COc1ccc(C2c3c(n(C)c4ccccc34)C(=O)N2CC(=O)Nc2cc(Cl)ccc2C)cc1 (configuration not stated),inactive: -20.1%,
Cc1ccccc1-n1ncc2c([N+](=O)[O-])cc([N+](=O)[O-])cc21,,"inconclusive: 39.8 µM [inhibitor, partial curve]"
COc1ccc(-c2cc3ccccc3oc2=O)cc1NC(=O)c1ccc(Br)o1,inactive: -4.31%,
C/C(=N\NC(=O)c1ccccc1)c1ccccc1Br,inactive: 3.96%,
Cc1ccc(S(=O)(=O)N2CC(O)CC2C(=O)OCC(=O)c2ccccc2Cl)cc1C (configuration not stated),,"inconclusive: 50.1 µM [inhibitor, single point]"
CCOc1ccc(N2C(=O)/C(=C/c3cccs3)N(CC(=O)OC)C2=S)cc1,,"inconclusive: 35.5 µM [inhibitor, partial curve]"
Cc1cccc(N2CCN(C(=O)c3cc(S(=O)(=O)N4CCCC4)cn3C)CC2)c1C,,"inconclusive: 15.8 µM [inhibitor, partial curve]"
Cc1ccc(SCC(=O)O/N=C(\N)c2cccnc2)cc1,,"inconclusive: 35.5 µM [inhibitor, single point]"
CCc1cccc(NS(=O)(=O)c2ccc3c(c2)n(C)c(=O)c(=O)n3C)c1,inactive: -20.8%,
O=C(Nc1ccccc1Cl)c1ccccc1Cl,,"inconclusive: 28.2 µM [inhibitor, single point]"
COc1cccc(OCCn2cccc2/C=C2/C(=N)N3OC(C)=CC3=NC2=O)c1,,"inconclusive: 39.8 µM [inhibitor, partial curve]"
O=C(Oc1ccc(O)cc1)C12CC3CC(CC(C3)C1)C2,,"inconclusive: 6.31 µM [inhibitor, full curve]"
COc1ccc(/C=C/C(=O)c2cc(O)ccc2O)cc1,,"inconclusive: 31.6 µM [inhibitor, single point]"
CCC1CN(C(=O)Nc2cc(C)ccc2OC)c2cc(Cl)ccc2O1 (configuration not stated),,"inconclusive: 44.7 µM [inhibitor, single point]"
CCCCC(=O)OCc1cc(=O)n2nc(C3CCCCC3)sc2n1,,"inconclusive: 31.6 µM [inhibitor, single point]"
Cc1ccc(NC(=O)c2nn(C34CC5CC(CC(C5)C3)C4)cc2[N+](=O)[O-])cc1,,"inconclusive: 17.8 µM [inhibitor, partial curve]"
COC(=O)[C@H](CCSC)NC(=O)c1ccc(NC[C@@H](N)CS)cc1-c1ccccc1,,"inconclusive: 28.2 µM [inhibitor, partial curve]"
O=C(/C=C\Nc1ccc2c(c1)OCO2)c1cccs1,,"inconclusive: 31.6 µM [inhibitor, partial curve]"
Nc1ccc(Oc2ccc(Cl)cc2)cc1,,"inconclusive: 11.2 µM [inhibitor, partial curve]"
O=C1C(Cl)=C(Nc2ccc3cn[nH]c3c2)C(=O)c2ccccc21,inactive: -0.15%,

Structure (SMILES),"activity change, negative = displacement",Potency
O=C(Cc1ccccc1)Nc1cc(C(=O)c2ccccc2)ccc1N1CCOCC1,,"inconclusive: 10 µM [inhibitor, partial curve]"
CCCN(CCC)S(=O)(=O)c1cccc(C(=O)N=c2sccn2C)c1,,"inconclusive: 22.4 µM [inhibitor, partial curve]"
Cc1nc2sccc2c(=O)n1-c1cccc(Cl)c1,,"inconclusive: 28.2 µM [inhibitor, partial curve]"
CC1CCCC(C)N1C(=O)Cn1cc(/C=C2/C(=O)Nc3ccccc32)c2ccccc21 (configuration not stated),,"inconclusive: 7.94 µM [inhibitor, full curve]"
COc1ccc2c(c1)OC(=O)CC2c1ccccc1C (configuration not stated),,"inconclusive: 39.8 µM [inhibitor, single point]"
COc1ccc(C(=S)NCS(=O)(=O)c2ccc(C)cc2)cc1,,"inconclusive: 25.1 µM [inhibitor, partial curve]"
Cc1cc(NS(=O)(=O)c2ccccc2)c(C)c(Cl)c1O,,"inconclusive: 50.1 µM [inhibitor, single point]"
Cn1cccc1Cc1nnc(SCC(=O)Nc2cccc(F)c2)n1-c1ccc(F)cc1,,"inconclusive: 35.5 µM [inhibitor, partial curve]"
COc1ccccc1NC(=O)C/C(C)=N/NC(=O)C12CC3CC(CC(C3)C1)C2,,"inconclusive: 31.6 µM [inhibitor, partial curve]"
O=c1[nH]ncc(NCc2ccc(Cl)cc2)c1Cl,,"inconclusive: 39.8 µM [inhibitor, single point]"
O=C(CSc1nnnn1-c1ccccc1)NC1CCCc2ccccc21 (configuration not stated),,"inconclusive: 39.8 µM [inhibitor, partial curve]"
Nc1ncc(Br)cc1S(=O)(=O)NCCc1ccccc1,,"inconclusive: 39.8 µM [inhibitor, single point]"
COc1ccccc1NC(=O)Cn1nnc(C(=O)Nc2ccccc2)c1N,,"inconclusive: 12.6 µM [inhibitor, partial curve]"
Cc1nc2oc3ccccc3c(=O)c2c(=O)n1Cc1ccccc1,,"inconclusive: 11.2 µM [inhibitor, partial curve]"
Cc1ccc(C2(c3ccc(C)cc3)CC2C(=O)Nc2ccc([N+](=O)[O-])cc2O)cc1 (configuration not stated),,"inconclusive: 31.6 µM [inhibitor, partial curve]"
COc1cc(NC(=O)CCc2ccccc2)nc(OC)n1,,"inconclusive: 25.1 µM [inhibitor, partial curve]"
Cc1ccc(/C(=N/Nc2ncnc3ccccc23)C(=O)O)cc1,inactive: -7.73%,
CCCn1c(SCC(=O)Nc2sc(C)c(C)c2C#N)nnc1C(C)C,,"inconclusive: 39.8 µM [inhibitor, partial curve]"
CCOc1ccccc1CNC(=O)c1ccc2c(c1)nc1n2CCCCC1,,"inconclusive: 39.8 µM [inhibitor, partial curve]"
Cc1cc(NC(=S)Nc2ccc(C)c(Cl)c2)n[nH]1,,"inconclusive: 35.5 µM [inhibitor, single point]"
CCC(C)c1ccc(NC(=S)NCc2ccccc2OC)cc1 (configuration not stated),inactive: -0.138%,
COc1ccc(OC)c(NC(=O)c2c(NC(=O)CNCc3ccco3)sc3c2CCC3)c1,inactive: -19.8%,
O=C(CS(=O)(=O)c1cccc2nsnc12)N1CCN(c2cccc(C(F)(F)F)c2)CC1,,"inconclusive: 22.4 µM [inhibitor, partial curve]"

Structure (SMILES),"activity change, negative = displacement",Potency
COC(=O)c1[nH]c2ccc(Br)cc2c1NC(=O)CN1CCN(C2CCCCC2)CC1,inactive: -17.1%,
CCN(CC)S(=O)(=O)c1ccc(S(=O)(=O)N2CCCC2)cc1,inactive: -7.22%,
Cn1cc(CN2CCC(C(=O)Nc3ccc(Oc4ccccc4F)cc3)CC2)cn1,,"inconclusive: 31.6 µM [inhibitor, partial curve]"
COC(=O)c1ccccc1NC(=O)C1=C(C)C(=O)OC12CCCCCC2,,"inconclusive: 35.5 µM [inhibitor, partial curve]"
CN(C(=O)c1ccco1)c1nc(-c2ccc(Cl)cc2)cs1,inactive: -13%,
Oc1csc(Cc2nc(-c3ccc4ccccc4c3)cs2)n1,inactive: 83.3%,
Cc1cc(-c2nnc(CCC(=O)NCc3ccc(OC(F)(F)F)cc3)o2)no1,,"inconclusive: 31.6 µM [inhibitor, single point]"
CC(C)(C)NS(=O)(=O)c1ccc(NC(=O)CS(=O)(=O)Cc2ccccc2)cc1,,"inconclusive: 25.1 µM [inhibitor, single point]"
CCn1cc(C(=O)N2CCN(c3cc(C)ccc3C)CC2)c(=O)c2cc(S(=O)(=O)N3CCCCC3)ccc21,,"inconclusive: 50.1 µM [inhibitor, partial curve]"
FC(F)(F)c1nnc2ccc(N3CCCCCC3)nn12,,"inconclusive: 50.1 µM [inhibitor, partial curve, poor fit]"
COC(=O)c1ccc(CSc2ccccc2C)o1,,"inconclusive: 35.5 µM [inhibitor, single point]"
COc1cccc(-c2nc(N3CCCCC3C)c3ccccc3n2)c1O (configuration not stated),,"inconclusive: 14.1 µM [inhibitor, partial curve]"
CCOc1ccccc1CNC(=O)Cn1cc2c(n1)-c1c(oc(C(=O)N3CCCC3)c1C)CC2,,"inconclusive: 20 µM [inhibitor, partial curve]"
O=C(CNC(=O)c1ccc(Br)cc1)N=Nc1c(O)[nH]c2ccc([N+](=O)[O-])cc12,,"inconclusive: 20 µM [inhibitor, partial curve]"
CCc1ccc2c(c1)/C(=C/C(=O)c1cccs1)C(=O)N2,,"inconclusive: 39.8 µM [inhibitor, partial curve]"
Cc1ccc(NC(=S)N/N=C/c2ccc(Cl)c([N+](=O)[O-])c2)cc1,,"inconclusive: 50.1 µM [inhibitor, partial curve]"
COc1ccc(CCNC(=S)NC(=O)c2ccccc2)cc1OC,,"inconclusive: 35.5 µM [inhibitor, partial curve]"
CCCCc1c(O)nc2sc3cc(OC)ccc3n2c1=O,inactive: -8.66%,
Cc1ccc(C2=Nc3c(ccc4ccccc34)C(c3ccncc3)=NN2)cc1,,"inconclusive: 17.8 µM [inhibitor, partial curve]"
Cn1c(SCC(=O)CC(=O)Nc2ccccc2)nnc1-c1ccc(O)cc1,inactive: 4.52%,
CCn1c(SCC(=O)N2CCC(C)CC2)nnc1-c1ccc(S(=O)(=O)N2CCN(C)CC2)cc1,,"inconclusive: 28.2 µM [inhibitor, partial curve]"
